Results reported in PubChem BioAssay AID1745853 (National Center for Advancing Translational Sciences (NCATS), 2022).
The list shows a part of the results. Further columns of the screen follow, without active or inactive calls.

Assays:
Assay in all cases: Primary Screen for Target Class Profiling of Small Molecule Inhibitors of Methyltransferases
[1] = molecular target: Glycine N-methyltransferase (Homo sapiens) (UniProt Q14749); conditions: purified enzyme, MTase-Glo SAH luminescence; measured here: GNMT inhibition; at 40 µM; stronger effect = lower value
How it was run: (§1)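 Each enzyme was assayed with SAM and its substrate. SAH formation detected by MTase-Glo luminescence; single-point 40 uM screen[…].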

[2] = molecular target: Guanidinoacetate N-methyltransferase (Homo sapiens) (UniProt Q14353); conditions: purified enzyme, MTase-Glo SAH luminescence; measured here: GAMT inhibition; at 40 µM; stronger effect = lower value
How it was run: as §1

[3] = molecular target: Histamine N-methyltransferase (Homo sapiens) (UniProt P50135); conditions: purified enzyme, MTase-Glo SAH luminescence; measured here: HNMT inhibition; at 40 µM; stronger effect = lower value
How it was run: as §1

[4] = molecular target: Nicotinamide N-methyltransferase (Homo sapiens) (UniProt P40261); conditions: purified enzyme, MTase-Glo SAH luminescence; measured here: NNMT inhibition; at 40 µM; stronger effect = lower value
How it was run: as §1

[5] = molecular target: Phenylethanolamine N-methyltransferase (Homo sapiens) (UniProt P11086); conditions: purified enzyme, MTase-Glo SAH luminescence; measured here: PNMT inhibition; at 40 µM; stronger effect = lower value
How it was run: as §1
On the % scale 0 is the no-effect control and ±100 the full control effect.

Row | SMILES | activity change, negative = inhibition [1] | activity change, negative = inhibition [2] | activity change, negative = inhibition [3] | activity change, negative = inhibition [4] | activity change, negative = inhibition [5]
1 | O=C(Cc1c[nH]c2ccccc12)N1CCc2c(nc(-c3ccc(F)cc3)[nH]c2=O)C1 | -12.1% | -7.89% | -3.92% | -10.1% | 1.47%
2 | CC(C)Cn1c(=O)c2sccc2n2c(CCC(=O)NCc3ccncc3)nnc12 | -2.31% | 2.5% | 11.3% | 7.5% | 4.05%
3 | Cc1cc2c(cc3n2CC(C)(C(=O)NC2CCCCCC2)N(CCN2CCCCCC2)C3=O)o1 (stereo not given) | 0.119% | 4.77% | -14.7% | -6.96% | -3.31%
4 | O=C(NCc1cccnc1)c1cc(CN2CCC(Cc3ccccc3)CC2)on1 | -10.8% | -13.4% | -11.9% | -13.4% | -15.2%
5 | CCN(CC)CCOCCOC(=O)C(CC)(CC)c1ccccc1 | 2.54% | 7.52% | -0.501% | -6.66% | 2.24%
6 | CCOc1ccc(CN2C(=O)c3cc4occc4n3CC2(C)C(=O)NC2CCCCC2)cc1 (stereo not given) | 3.58% | 0% | 7.84% | 8.84% | 3.49%
7 | O=C(Cn1c(=O)oc2cc(S(=O)(=O)N3CCCC3)ccc21)Nc1nccs1 | -0.084% | 3.87% | -0.689% | 4.84% | -22.7%
8 | CCOCCCNC(=O)C1c2c(n(C)c3ccccc23)SCC(=O)N1c1ccc(CC)cc1 (stereo not given) | 4.54% | 0.862% | 3.31% | 3.87% | 5.97%
9 | O=C(N[C@H](c1ccccn1)C1CC(O)C1)c1ccc(Cn2cccn2)o1 (stereo not given in full) | -0.065% | 0.334% | 0.822% | 0.133% | 2.47%
10 | C=CCCC(CN1CCSCC1)Oc1ncc(CC)cn1 (stereo not given) | -0.246% | 2.04% | 3.52% | 1.18% | 3.01%
11 | CCCC1c2cccn2CCN1C(=O)Nc1ccccc1C (stereo not given) | -4.24% | 0% | -22% | 0.508% | 4.69%
12 | CCN1C(=O)c2cc(C(=O)NCc3ccccc3Br)nn2CC1(C)C(=O)NC1CCCC1 (stereo not given) | -0.428% | 0.905% | -5.03% | 2.97% | -3.72%
13 | COc1cc2c(cc1CN1CCC3(CCCNC3)C1)OCCCO2 (stereo not given) | -1.54% | -3.11% | -1.81% | -3.7% | -3.47%
14 | C/C=C(\C)C(=O)O[C@@H]1CC2[C@@H](CC=C3C[C@@H](O[C@H]4C[C@H](OC)[C@H](O[C@H]5C[C@H](OC)[C@H](O[C@H]6C[C@H](OC)[C@H](O[C@H]7C[C@@H](OC)[C@H](O[C@@H]8O[C@H](CO)[C@@H](O)[C@H](O)[C@H]8O)[C@@H](C)O7)[C@@H](C)O6)[C@@H](C)O5)[C@@H](C)O4)CC[C@@]32C)[C@@]2(O)CC[C@H](C(C)=O)[C@@]12C (stereo not given in full) | 0% | 20.6% | 10.4% | 7.74% | 8.36%
15 | CN1C2CCC1CC(OC(=O)C(O)c1ccccc1)C2 (stereo not given) | 3.01% | 9.83% | 4.28% | -5.56% | 4.07%
16 | CC(C)NC(=O)CSc1nnc2n(Cc3ccccc3)c(=O)c3ccccc3n12 | -5.26% | 4.4% | 4.92% | -5.06% | -2.73%
17 | N#CC(=C(\N)Sc1ccccc1N)/C(C#N)=C(/N)Sc1ccccc1N | -53.7% | 8.61% | 3.23% | -6.34% | -5.99%
18 | Cc1ccc(Cn2c(=O)c3ccccc3n3c(CCC(=O)Nc4cc(C)cc(C)c4)nnc23)cc1 | -2.52% | 0% | 5.83% | 2.32% | 1.65%
19 | COc1cccc(S(=O)(=O)N2CCC(n3c(C)cnc3C3CCOCC3)CC2)c1 | 3.3% | 0.893% | 10.2% | -5.42% | 4.89%

Row | SMILES | activity change, negative = inhibition [1] | activity change, negative = inhibition [2] | activity change, negative = inhibition [3] | activity change, negative = inhibition [4] | activity change, negative = inhibition [5]
20 | Cc1ccc(CNC(=O)c2ccc3c(=O)nc4c(-c5ccc(Cl)cc5)n[nH]n4c3c2)cc1 | 3.19% | 0% | 7.97% | 9.53% | 4.02%
21 | O=C1CCN(C(=O)c2nccc3ccccc23)CCOCCN1 | -4.35% | -7.25% | -3.03% | -5.17% | -1.76%
22 | Cc1ccc2nc(NC(=O)CSc3nc4c(c(=O)n3-c3ccccc3)SCC4)sc2c1 | -0.461% | -1.59% | 6.96% | -16.8% | 0.288%
23 | CCCn1c(=O)c2ccc(C(=O)NCC(C)C)cc2n2c(=O)n(CC(=O)Nc3ccccc3C)nc12 | 4.49% | 0% | 5.72% | 4.34% | 2.53%
24 | CC(=O)N1CCC(C(=O)NC2CCc3n[nH]c(=O)n3CC2)CC1 (stereo not given) | -0.942% | -2.2% | 0.658% | 0.686% | 4.67%
25 | O=[S+]1([O-])NC2(CCCN(Cc3ccc(F)cc3)C2)CNc2ccccc21 (stereo not given) | -47.6% | -2.17% | 0.268% | -1.8% | 1.03%
26 | CCc1ccccc1NC(=O)CSc1nnc2n(CC(C)C)c(=O)c3ccccc3n12 | -9.81% | -5.15% | 1.86% | -10.7% | -8.32%
27 | N#Cc1cccnc1-c1ccc(C(=O)N2CCC(N[S+](=O)([O-])c3cccc(C(F)(F)F)c3)CC2)cc1 | -5.33% | 0.252% | -0.148% | -10.7% | -3.7%
28 | COc1cccc(CCC(=O)NC2CCc3nn(CC4CC4)c(=O)n3CC2)c1 (stereo not given) | -3.63% | -3.26% | -0.86% | -8.02% | -0.191%
29 | CCCn1c(=O)c2ccc(C(=O)NC(C)C)cc2n2c(=O)n(C)nc12 | 3.89% | 0.743% | 8.05% | 4.44% | 7.64%
30 | Cc1ccc(Cn2c(=O)c3ccc(C(=O)NC4CCCCC4)cc3n3c(=O)n(C)nc23)cc1 | 4.63% | 0.247% | 6.88% | 5.76% | 3.44%
31 | O=C(NC[C@H]1O[C@@H](CO)[C@@H](O)[C@H]1N1CCOCC1)c1cccc(F)c1 | 0.592% | 1.86% | 2.33% | 1.06% | 10.5%
32 | CN(CCCN1C(=O)c2cc3occc3n2CC1(C)C(=O)NC1CCCCC1)Cc1ccccc1 (stereo not given) | 7.75% | 2.18% | -2.89% | 9.94% | 4.75%
33 | CC(C)CCn1c(=O)c2ccccc2n2c(=O)n(CC(=O)Nc3ccc(F)cc3)nc12 | 1.73% | 0% | 1.82% | -6.89% | 3.48%
34 | COc1ccc(Cl)cc1C(=O)N(C)C1CCc2nn(C)c(=O)n2CC1 (stereo not given) | -1.51% | -3.42% | 1.76% | -3.76% | -17.8%
35 | C[C@@H]1CCC/C=C/[C@H]2CC(=O)C[C@@H]2[C@@H](O)/C=C/C(=O)O1 | -0.642% | -3.74% | 6.26% | -42.7% | 1.95%
36 | CC1CCCCC1NC(=O)C1(C)Cn2c(nc3ccccc32)C(=O)N1Cc1ccc2c(c1)OCO2 (stereo not given) | 5.25% | 0% | 9.25% | 11.1% | 3.34%
37 | COc1cccc(-c2ccc(C(=O)NCCNC(=O)C3CCCC3)cc2)c1 | -8.91% | -10.8% | -5.46% | -17.5% | -11.9%
38 | CNC(=O)N1CCC(C2CCN(C(=O)CCc3ccccc3OC)C2)CC1 (stereo not given) | -4.3% | -12.1% | -1.69% | -7.36% | -3.8%

Row | SMILES | activity change, negative = inhibition [1] | activity change, negative = inhibition [2] | activity change, negative = inhibition [3] | activity change, negative = inhibition [4] | activity change, negative = inhibition [5]
39 | Cc1cccc(N2CCN(C(=O)c3ccc4c(=O)[nH]c5c(C(=O)NC6CCCC6)sc(=S)n5c4c3)CC2)c1C | -3.74% | 4.77% | -9.35% | -9.87% | -0.939%
40 | Cc1ccc(N2C(=O)c3cc(-c4ccco4)nn3CC2(C)C(=O)NC2CCCCCC2)cc1Cl (stereo not given) | -1.88% | 4.31% | 3.8% | -9.01% | -0.666%
41 | CCOc1ccc(C(=O)Cn2nc3n(C(C)C)c(=O)c4ccc(C(=O)NCC(C)C)cc4n3c2=O)cc1 | 3.91% | 0% | 9.73% | -4.14% | 1.47%
42 | COc1cccc(CN2C(=O)c3cc4occc4n3CC2(C)C(=O)NC2CCCCCC2)c1 (stereo not given) | -8.64% | 0.706% | -4.53% | -18.6% | -4.41%
43 | CCCn1c(=O)c2ccc(C(=O)NC3CCCCC3)cc2n2c(=O)n(CC(=O)c3cccc(OC)c3)nc12 | 2.45% | 4.07% | -1.69% | 1.21% | 2.42%
44 | C#CCn1c(=O)c2c(ncn2C)n(C)c1=O | 2.63% | 14.5% | 10.7% | -1.61% | 6.39%
45 | COc1ccccc1N1C(=O)CSc2c(c3ccccc3n2C)C1C(=O)NCc1ccccc1 (stereo not given) | -2.77% | 4.19% | 2.39% | -2.27% | -2.91%
46 | CC(CCC1(O)OC2CC3C4CCC5CC(O[C@@H]6O[C@H](CO)[C@@H](O)[C@H](O)[C@H]6O[C@@H]6OC[C@@H](O)[C@H](O)[C@H]6O)C(O)CC5(C)C4CCC3(C)C2C1C)CO[C@@H]1O[C@H](CO)[C@@H](O)[C@H](O)[C@H]1O (stereo not given in full) | -0.59% | 0.547% | 9.39% | -11.1% | 3.94%
47 | Fc1ccc(-c2c3cccc(C(F)(F)F)c3nn2Cc2ccc(F)cc2Cl)cc1 | 3.11% | -7.67% | 11.4% | -17.7% | 1.19%
48 | CCOc1cc2c(c(F)c1OCC)C(=N)N(CC(=O)c1cc(N3CCOCC3)c(OC)c(C(C)(C)C)c1)C2 | -4.68% | 0.822% | -17.8% | -45.5% | -15.6%
49 | OC[C@@H]1O[C@H](CNC2CCOCC2)[C@H](N2CCCC2)[C@@H]1O | -2.2% | -5.56% | -1.18% | -8.5% | -5.08%
50 | CCNC(=O)[C@@H]1C[C@H](NC(=O)c2ccc[nH]2)CN1C(=O)Cc1cc(C)no1 | -2.96% | 2.08% | -0.062% | -1.54% | -3.03%
51 | C[C@@H]1O[C@@H](OC[C@H]2O[C@@H](Oc3cc(O)cc4c3C(=O)C(O)(Cc3ccc(O)cc3)O4)[C@H](O)[C@@H](O)[C@@H]2O)[C@H](O)[C@H](O)[C@H]1O (stereo not given in full) | -9.27% | 1.02% | -3.98% | -9.61% | 1.45%
52 | O=C(c1ccc(F)cc1)C1CCN(CCn2c(=O)nc3n(c2=O)CCCC3)CC1 | 2.1% | -0.987% | 2.75% | -12.7% | -1.54%
53 | CC1(C)CC[C@]2(C(=O)O)CC[C@]3(C)C(=CCC4[C@@]5(C)CC[C@H](O[C@@H]6O[C@H](C(=O)O)[C@@H](O[C@@H]7OC[C@@H](O)[C@H](O)[C@H]7O)[C@H](O)[C@H]6O)C(C)(C)C5CC[C@]43C)C2C1O (stereo not given in full) | 1.02% | -1.01% | 6.62% | -13.4% | -7.54%
54 | CCN(CC)c1nc2c(-c3cccc(Br)c3)nnn2c2ccccc12 | -4.66% | -0.04% | -3.2% | -4.93% | -9.94%
55 | CCCn1c(=O)c2ccccc2n2c(SCC(=O)Nc3cccc(Cl)c3)nnc12 | -1.84% | 1.04% | 10.1% | -4.92% | 3.93%
56 | Cn1cc(-c2ccc3c(c2)CCN3C(=O)Cc2cccc(C(F)(F)F)c2)c2c(N)ncnc21 | -2.06% | 13.6% | 9.81% | -15.4% | -4.79%
